We go through 14 molecules from PMC12136788.

Some of the results follow.

The labels stand for the following.
T1: UNK ZnF1-3 (human, UniProt Q9C0B0 31-174)
T1 sequence: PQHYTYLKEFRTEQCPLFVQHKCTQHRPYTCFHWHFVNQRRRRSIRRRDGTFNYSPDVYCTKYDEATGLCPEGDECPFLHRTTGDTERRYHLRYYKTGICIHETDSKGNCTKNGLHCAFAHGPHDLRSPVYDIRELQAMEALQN

B1: chr12:39763582:39763583:-_ENSG00000139116_ENST00000544797|hu_mus|hu_hu_hu_mus_False|78_78 (ssRNA)
RNA: GGGAGUUCUACAGUCCGACGAUCCUCUAGGAACUGGGCAUUCACUUUGAAUUCAGGAGCAGGAAGCCCGUUUUUAAUCGCUGAGGUCUUUUUCUCAUCAAUACUCUUGAACAGGUGUCUAACAGCACGAGAGAUGAUGCCCUGCAACAGAGGAUUGAGCAUCA
B2: chr8:41367971:41367972:+_ENSG00000147533_ENST00000520817|hu_mus|motif|central (ssRNA)
RNA: GGGAGUUCUACAGUCCGACGAUCGCAACAUACUGUAUUAUUUCUACCAAUUUUUUCUCCUAAGUUAUACUUGUAACAAAACGGGAGUUAGGUGCUUAGGACACUUGCUUCUUCCACACCGGGCAGAGCUGGGGCAGGUGGAGCCAACAGAGGAUUGAGCAUCA
B3: chr17:65740002:65740003:+_ENSG00000130935_ENST00000581375|hu_hu|hu_hu_hu_mus_False|18_48 (ssRNA)
RNA: GGGAGUUCUACAGUCCGACGAUCAACAAAUCUUUCUUCCCUGGACGAACAGGAAGAUUCAUAUUAAAAAAAAUAUAUAUCCAUCAAGGAGAAUUGAGUGGCCACACCUUUACUCCCCACUUCAAUUGAGGUGGAUCUCUGAGUCAACAGAGGAUUGAGCAUCA
B4: chr6:124997908:124997909:+_ENSMUSG00000030330_ENSMUST00000032480|mus_hu|FALSE|FALSE (ssRNA)
RNA: GGGAGUUCUACAGUCCGACGAUCGGAACAAUCAGGGUUGUCACAGCCAAUCAUCUCUCCAUAGGAGACCUGGUGACAAAGGCAAUAGGUGGGUUCGUUGGGAUCCACAGGCAUAUCCAACACAUCAGAGGGGUGGACACUGCCCAACAGAGGAUUGAGCAUCA
B5: 113503590_113505108_642_3pUTR_ENSG00000114573_ENST00000273398|human|control|control (ssRNA)
RNA: GGGAGUUCUACAGUCCGACGAUCACCUUCAAAUUCAAGCUCCAAGACAACAUCAGAGGUAUCAUAAUUCCCAGGUGGAGCAAUGUAAGUUACAGUUCCUCUGUUUCGUGGGGGUAACAUGAUUUUGUGUUUGAUAAGCGAGUUCAACAGAGGAUUGAGCAUCA
B6: chr1:43168039:43168040:+_ENSMUSG00000010290_ENSMUST00000010434|mus_mus|FALSE|FALSE (ssRNA)
RNA: GGGAGUUCUACAGUCCGACGAUCCUGUUGAGUGUCAUUAUUAUUGUGCUCCAUUUUAUGGUUCACAGGCAAAUUGGAAAACAACACUAGGGGUGAAAUCCUCGACGAGGAAUUUGGUGAUUUCCAGAAGGCAUCACUGGUGGACAACAGAGGAUUGAGCAUCA
B7: chr3:148522152:148522153:-_ENSMUSG00000028184_ENSMUST00000106128|mus_hu|motif|central (ssRNA)
RNA: GGGAGUUCUACAGUCCGACGAUCUGGUGAGGUAUCAUGGUAGUUGGCAUAGUUAAUUAUGGCCUCGCCACUCUUAAUUCGGGUCCUCAAGUCAAAUUUCACAAUAUUCCUCGUUCUUUCUUUGUUAAAGAAGACAGCACCAUCCAACAGAGGAUUGAGCAUCA
B8: 35904860_35906044_3262_CDS_ENSMUSG00000031529_ENSMUST00000033929|mouse|control|control (ssRNA)
RNA: GGGAGUUCUACAGUCCGACGAUCAGUUCCCUGAUUCACACAGUGAAAAGUCAAAUAUGGAUUGGUUCCUUGUUGUCCACCUAAAAGUCUUUCAACACCCUUGAUCAACUUGUGGCGGUGUCCAUAUGCAUUGAUGCCUAUUUCCAACAGAGGAUUGAGCAUCA
B9: chr8:54879716:54879717:-_ENSG00000187735_ENST00000521604|hu_hu|FALSE|FALSE (ssRNA)
RNA: GGGAGUUCUACAGUCCGACGAUCCAAUCUCACUCAUGACAGAAAAAGUCAGCAAAUAAGACUUGGGACAAAAUUAUUUUCUAUCAGUCUCCACAUGGAAAGACCACAGCUUUAAUGAAUUAUACAAUCCUUAAGAUUAAUCCUCAACAGAGGAUUGAGCAUCA
B10: chr1:156288723:156288724:-_ENSG00000163468_ENST00000295688|hu_hu|FALSE|FALSE (ssRNA)
RNA: GGGAGUUCUACAGUCCGACGAUCUCCUUUCUUGUAUUCCAGAGAAGAAUCCAGCAGCACAAUGCGAGGGUUCUUGAUAUAGCGCCGCAUACGUGGAUGGGUCACAUCCUUGUUAAUCAUGACUCCACGCAAGACACAGGAGUCCAACAGAGGAUUGAGCAUCA
B11: chr12:111929536:111929537:-_ENSMUSG00000021270_ENSMUST00000094361|mus_hu|motif|central (ssRNA)
RNA: GGGAGUUCUACAGUCCGACGAUCAGCUCAGAACACUUCAAUAACAAGAUUUGGUCUACUUAGGCAUCCGGCUUGACAGCGGAACACUUUAGACCACAAAGUUAACAUCAUGUUACAUACGUCUUACAGUGCACGUUACCCCAACAACAGAGGAUUGAGCAUCA
B12: chrX:50352303:50352304:+_ENSMUSG00000025630_ENSMUST00000026723|mus_mus|motif|central (ssRNA)
RNA: GGGAGUUCUACAGUCCGACGAUCCGGCAUAAUGAUUAGGUAUACAAAACAAAUCUAGGUCAUAACCUGGUUCAUCAUCGCGGAUCACGACGCUGGGACUGCGGGUCGGCAUGACGGGACCGGUCGGCUCGCGGCAAAAAGCGGCAACAGAGGAUUGAGCAUCA
B13: chr4:76733432:76733433:+_ENSG00000138768_ENST00000264904|hu_hu|FALSE|FALSE (ssRNA)
RNA: GGGAGUUCUACAGUCCGACGAUCGCCAAGAGCACCAAGAGAUCAUCUUGUUCUUUUUUAGAAUCUGUAAUUUCCAACUCUAGUUUGUCUUUCUCAGUUUGUAAAAUGGCAAUGGUACUAUUAGAUGAAUCCAGCUGCUCUUUACAACAGAGGAUUGAGCAUCA
B14: chr11:46405157:46405158:+_ENSG00000110492_ENST00000395566|hu_hu|hu_hu_hu_mus_False|18_48 (ssRNA)
RNA: GGGAGUUCUACAGUCCGACGAUCCCCUCCCCACUUUGGGCACUUGGUGUGGGCGUGAGAGGACAGGCGUGAUUGACAGAGCUGACAAGCAGACAGAAGGCACUGGUGGGUUAUAUCUCGGGCCUGGGGGAGAGGAGGGCUCCGCAACAGAGGAUUGAGCAUCA

For this assay, the target named is T1, UNK ZnF1-3. Kind of assay: nsRBNS (natural sequence RNA bind-n-seq); RBNS binding buffer (assumed for nsRBNS): 25 mM Tris pH 7.5, 150 mM KCl, 3 mM MgCl2, 0.01% Triton X-100, 500 ug/ml BSA, 20 U/ml SUPERase-In, 4 C; UNK is unkempt and MSI1 is Musashi-1; names of the RNAs are library labels; protein concentration not given here; high values mean tight binding.
Regarding B1, the binding signal is 1.42 enrichment R.

In turn, B2 returned a binding signal of 1.3 enrichment R.

In turn, B3 showed a binding signal of 1.33 enrichment R.

Molecule B4 yielded a binding signal of 0.972 enrichment R.

On to B5, for which the binding signal was 1.35 enrichment R.

For B6, the binding signal is 0.973 enrichment R.

Molecule B7 came in with a binding signal of 0.632 enrichment R.

The molecule B8 showed a binding signal of 0.69 enrichment R.

For the molecule B9, the binding signal was 0.978 enrichment R.

Turning to B10, the binding signal stood at 0.904 enrichment R.

B11 displayed a binding signal of 0.761 enrichment R.

In turn, B12 gave a binding signal of 0.675 enrichment R.

In the case of B13, the binding signal stood at 0.953 enrichment R.

B14 came in with a binding signal of 2.66 enrichment R.
